# PubChem BioAssay AID686978 (National Center for Advancing Translational Sciences (NCATS), 2013)
# Hit rate of the full screen: of about 420,000 compounds, about 64,000 (15%) were called active. The shares of active, inactive and inconclusive entries below differ from those in the screen. The call rests on the fitted dose curve; in most records, active means well fitted inhibition curve with a large enough effect; inconclusive means small, poorly fitted or top-dose-only effect; inactive means flat fitted curve, though single readings scatter. No potency is given beside an inconclusive call; the fits are too rough.
# Assay: qHTS for Inhibitors of human tyrosyl-DNA phosphodiesterase 1 (TDP1): qHTS in cells in absence of CPT; further: nearly all actives have a fitted effect of over 55% in size
# Conditions: DT40 Tdp1-/- hTDP1 cells, no CPT, ATP luminescence, 48 h; activity change, negative = growth inhibition: at 46.2 µM (top of the series) unless noted
# Summary of the method: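 Readout: luminescence from CellTiter-Glo after 30 min in the dark at RT. Cells: DT40 Tdp1-/- with stable hTDP1, 400/well. Exposure: compounds alone, ≥48 hr, 37 °C.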
# On the % scale 0 is the no-effect control and ±100 the full control effect; potency means the concentration at half of the fitted maximal effect; tags describe the fitted curve by direction and shape.
SMILES,Potency,"activity change, negative = growth inhibition"
COc1ccc(CC(=O)OCC(=O)c2c(N)n(C)c(=O)n(C)c2=O)cc1OC,"inconclusive [inhibitor, full curve, poor fit]",
Cc1sc(NC(=O)c2c(F)cccc2F)nc1-c1ccccc1,"inconclusive [inhibitor, single point]",
Fc1ccc(CN2C3=NCCN3c3ccccc32)cc1,"inconclusive [inhibitor, single point]",
CCOc1ccc2c(c1)c1nc3ccccc3nc1n2C,"inconclusive [inhibitor, single point]",
CC1Cc2ccccc2N1C(=O)c1ccc(N2CCCCC2)c([N+](=O)[O-])c1 (centres undefined),"inconclusive [inhibitor, single point]",
Cc1ccc(C2=Nc3ccccc3N=C(c3ccc([N+](=O)[O-])cc3)C2)c(O)c1,"inconclusive [inhibitor, single point]",
CNC(=O)c1c(NC(=O)CCS(=O)(=O)c2ccc(C)cc2)sc(C)c1C,,inconclusive: -30.6% [inhibitor]
CN1C(=O)c2cccc3c(S(N)(=O)=O)ccc1c23,,inactive: -3.15%
CCCCCCCCNS(=O)(=O)CCNCc1ccccc1,"inconclusive [inhibitor, single point]",
O=C(c1cc(S(=O)(=O)N2CCOCC2)ccc1F)N(Cc1nnc(-c2ccccc2Cl)o1)C1CC1,"inconclusive [inhibitor, single point]",
CCc1ccccc1NC(=O)C(NS(=O)(=O)c1ccc2c(c1)CCC(=O)N2)c1ccccc1 (centres undefined),"inconclusive [inhibitor, single point]",
O=C(Cc1sc(Nc2ccccc2)nc1-c1ccccc1)NCc1ccccn1,"inconclusive [inhibitor, single point]",
C=C(C)CN(CC)C(=O)COc1ccc(S(=O)(=O)Nc2ccc(OC)cc2)cc1,"inconclusive [inhibitor, single point]",
O=C(O)c1cccc(NC(=O)c2ccc(CN3C(=O)c4ccccc4C3=O)cc2)c1,,inactive: 0.0803%
O=C1C=C(c2ccccc2)OC(=O)C1C(=O)c1ccccc1 (centres undefined),,inactive: -18.8%
Oc1c(Br)cc(Br)cc1CNc1cccc2cccnc12,"inconclusive [inhibitor, single point]",
Cc1ccc(N/C=C(/C#N)c2ccsc2)cc1C,,inconclusive: -32.9% [inhibitor]
O=C(c1cn2ccccc2n1)N1CCCC(Nc2ccc(F)c(F)c2)C1 (centres undefined),,inactive: -11%
CC1=C(C(N)=O)C(c2cccc(F)c2)n2nc(SCc3ccccc3)nc2N1 (centres undefined),,inactive: 6.02%
Cc1ccccc1CN(C)CC(=O)Nc1ccccc1Oc1ccccc1,"inconclusive [inhibitor, single point]",
Cc1ccc(-c2nnn(CC(=O)Nc3ccccc3-c3ccccc3)n2)c(-n2cnnn2)c1,"inconclusive [inhibitor, partial curve]",
O=c1[nH]c(=O)c2nc3c4ccccc4c4ccccc4c3nc2[nH]1,active: 5.17 µM,
COc1ccc2[nH]cc(C(=O)CNc3nccs3)c2c1,active: 7.94 µM,

SMILES,Potency,"activity change, negative = growth inhibition"
COc1ccccc1-c1ccnc(-n2ncc(C(=O)NCCCN3CCOCC3)c2C)n1,,inactive: -3.07%
CCOC(=O)C1CCCN(C(=O)c2cccc(S(=O)(=O)N(Cc3ccccc3)c3ccccc3OC)c2)C1 (centres undefined),active: 16.4 µM,
COC(=O)c1ccccc1NC(=O)c1ccc2c(c1)CCN2S(=O)(=O)c1ccc(C)cc1,"inconclusive [inhibitor, single point]",
O=S(=O)(c1ccccc1)N1CCC2(CCN(c3ccncc3)CC2)CC1,active: 13 µM,
O=[N+]([O-])c1ccc(C2CCCC/C2=N\OCc2cccc(F)c2)c([N+](=O)[O-])c1 (centres undefined),"inconclusive [inhibitor, partial curve, poor fit]",
CC(=O)Nc1cc(-c2ccc(C(=O)NC3CC3)cc2)cn2c(-c3cccc(C(C)=O)c3)cnc12,active: 23.1 µM,
COc1ccc(CCNC(=O)CNCC2CCCCC2)cc1OC,,inactive: -17.6%
Nc1nc(Cl)c2ncn(C3OC(CO)C(O)C3O)c2n1 (centres undefined),"inconclusive [inhibitor, single point]",
CC1CCC2(CC1)NC(=O)N(CC(=O)NC1(C#N)CCCCC1)C2=O (centres undefined),,inactive: -16%
COc1ccc(-n2nnnc2C2c3ccccc3C(=O)N2C2CCN(Cc3ccccc3)CC2)cc1 (centres undefined),active: 16.4 µM,
Cc1c(C(=O)O)sc2nc(/C=C/c3cccc(F)c3)[nH]c(=O)c12,,inactive: -18.2%
CCN(CC)C(=O)CSc1nc2sc3c(c2c(=O)n1CCCOC)CCC3,"inconclusive [inhibitor, single point]",
CCNC(=O)Cn1c(=O)c(=O)n(Cc2ccccc2)c2ccc(Cl)cc21,"inconclusive [inhibitor, partial curve]",
NC(=O)SCC(=O)Nc1cccc(Cl)c1,"inconclusive [inhibitor, single point]",
CCc1ccc(C(=O)c2cnc3ccc(C)cc3c2S(=O)(=O)c2ccc(OC)cc2)cc1,active: 18.4 µM,
Cc1cccc(N2CCN(C(=O)NC(C)c3ccc(F)c(F)c3)CC2)c1C (centres undefined),"inconclusive [inhibitor, partial curve]",
Clc1ccc2c(c1)C(c1cccs1)=NNC(c1cccnc1)=N2,"inconclusive [inhibitor, single point]",
CCCCN1C[C@H](c2ccc(Br)cc2)[C@@H](CC(=O)Nc2ccc(Br)cc2)C1=O,"inconclusive [inhibitor, single point]",
COc1cc(OC)cc(-c2oc(=O)c3cc(OC)c(OC)cc3c2/C=C/c2ccc(F)cc2)c1,"inconclusive [inhibitor, single point]",
CC(C)c1cc(C(=O)N2CCCC(N3CCN(c4ccc(F)cc4)CC3)C2)n(C)n1 (centres undefined),"inconclusive [inhibitor, partial curve]",
COc1ccccc1CNC(=O)c1cc(Sc2cccc(Cl)c2)nc2ccccc12,"inconclusive [inhibitor, single point]",
Cn1ncc2c(NCc3ccccc3)nc(NCCCO)nc21,,inactive: 11.2%
CN(C)c1ccnc(Oc2ccc(F)cc2)c1C#N,"inconclusive [inhibitor, partial curve]",

SMILES,Potency,"activity change, negative = growth inhibition"
C/C(CC1CC(COCC(C)C)OC1=O)=N\Nc1nc(-c2ccccc2)cs1 (centres undefined),"inconclusive [inhibitor, single point]",
COc1ccc(CSc2nc3ccccc3c(=O)n2CCCN2CCOCC2)cc1F,"inconclusive [inhibitor, single point]",
CCCN(CC1CC1)c1nc(C)nc(Nc2c(Cl)cc(Cl)cc2Cl)c1Cl,"inconclusive [inhibitor, partial curve]",
CC1(CCc2ccc3c(c2)OCO3)NC(=O)c2ccccc2N1 (centres undefined),"inconclusive [inhibitor, single point]",
O=C(NCCc1nnc2n1CCN(Cc1ccc(F)c(F)c1)CC2)c1ccoc1,,inactive: -16.7%
O=C(CCCn1c(=O)c2sccc2n(Cc2ccc(F)cc2Cl)c1=O)NCc1ccc2c(c1)OCO2,,inactive: -29.7%
O=C(Nc1ccc(-c2cn3c(n2)SCC3)cc1)c1ccc2ccccc2n1,"inconclusive [inhibitor, partial curve, poor fit]",
CCCCCCCCC(=O)N/N=C(\C)c1cccnc1,"inconclusive [inhibitor, single point]",
COCc1c(C(=O)OCC(=O)NCCN2C(=O)CSC2=O)oc2ccccc12,,inactive: -13.6%
Cn1c(N)c(C(=O)CSc2n[nH]c(N)n2)c(=O)n(C)c1=O,,inactive: -2.56%
CN(CCOc1ccccc1)C(=O)c1ccc(N2CCCC2)c([N+](=O)[O-])c1,"inconclusive [inhibitor, single point]",
COc1cc(CN2C(=O)C(CCc3ccccc3)ON=C2c2cnccn2)cc(OC)c1 (centres undefined),"inconclusive [inhibitor, single point]",
CC(=O)N1CC[n+]2c(-c3ccc(Cl)cc3)csc21,active: 23.1 µM,
O=C(NCCCn1ccnc1)c1ccc(-c2ccccc2)cc1,"inconclusive [inhibitor, single point]",
Cc1csc(NC(=O)c2cc3c(C)nn(Cc4ccccc4Cl)c3s2)n1,active: 16.4 µM,
Cc1c(C(=O)N2CCCC2)oc2c1-c1nn(CC(=O)NCc3cccc(F)c3)cc1CC2,"inconclusive [inhibitor, single point]",
COc1ccc(CNC(=O)Cn2nc(C(F)(F)F)c(Br)c2C)cc1,,inconclusive: -33.7% [inhibitor]
O=C(CCN1CCN(Cc2ccccc2)CC1)Nc1cccc(Cl)c1,"inconclusive [inhibitor, single point]",
O=C(c1cc2ccccc2cc1O)N1CCN(c2ccccn2)CC1,"inconclusive [inhibitor, single point]",
Cc1cccc(C(=O)NC(C)C2CC3CCC2C3)c1 (centres undefined),"inconclusive [inhibitor, single point]",
CCCCCCC(=O)N1C/C=C\C(c2ccc(OC)cc2)N(Cc2ccc(F)cc2)C(=O)[C@H]1Cc1ccccc1 (some centres undefined),active: 18.4 µM,
O=C(CN1CCN(c2cccc(C(F)(F)F)c2)CC1)NCc1ccccc1,"inconclusive [inhibitor, single point]",
OCc1cnc(SCc2cccc(F)c2)n1Cc1ccc(F)cc1,"inconclusive [inhibitor, single point]",
